Results from paper PMC12136788.
Some of the results follow.

T1: UNK ZnF1-3 (human, UniProt Q9C0B0 31-174)
T1 sequence: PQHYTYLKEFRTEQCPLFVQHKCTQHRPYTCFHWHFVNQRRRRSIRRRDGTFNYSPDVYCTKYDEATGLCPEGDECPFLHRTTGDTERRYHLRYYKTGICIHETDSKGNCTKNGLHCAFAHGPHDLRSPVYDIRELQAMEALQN

B1: chr10:70744696:70744697:+_ENSG00000165732_ENST00000354185|hu_hu|FALSE|FALSE (ssRNA)
RNA: GGGAGUUCUACAGUCCGACGAUCUUAAAUUAGAAAAUAUUUUCUUUGUAGAAAAUAGUAAAAAUUAUAACAUUUACCAAGCUAACCCAACAAGUUCAUUUAAACCAAAAAGUAGCUAAAUACAUUAUACAUUUAUAAAUACAGCAACAGAGGAUUGAGCAUCA
B2: chr5:31261203:31261204:-_ENSMUSG00000045302_ENSMUST00000088063|mus_hu|FALSE|FALSE (ssRNA)
RNA: GGGAGUUCUACAGUCCGACGAUCGAAGCACACAACUUUCUGCAGUGGAUCGGAGCUAAAGUCUGUCUGCACCGCCUGCAAAUUCUCUACCCUGAGUUCUAGCCCCUCGUGCUGGGUUUCCGCUCCACAUUUCUUCUCUGCUGGCAACAGAGGAUUGAGCAUCA
B3: chr2:47387770:47387771:-_ENSG00000143933_ENST00000272298|hu_mus|hu_hu_hu_mus_True|1_38 (ssRNA)
RNA: GGGAGUUCUACAGUCCGACGAUCAAGGUUUAAGGACAAUGACAGUAAGAUAAGGGAAGAAAACAUGGAGGAAUGAAGUCCUAAUUACUAUACAUGCAUAUUUUUUUACAGUAGGGGGGGGGAACCUUUUACAGAUAUUACAAACAACAGAGGAUUGAGCAUCA
B4: chr2:202488911:202488912:-_ENSG00000155755_ENST00000286196|hu_mus|hu_hu_hu_mus_False|98_98 (ssRNA)
RNA: GGGAGUUCUACAGUCCGACGAUCAUUGAAACAUUUUCAUAAUAUUGCAGUAGCAUUUCAGCAUUAUGUAACAAAAGCUCAAUUGUAAAUACAUGUAUCUUAUAAAAAUACACUUAAAAACACGAGUGGGGAGCGCAGGCGCCACAACAGAGGAUUGAGCAUCA
B5: 95463088_95463208_505_3pUTR_ENSMUSG00000038612_ENSMUST00000037947|mouse|control|control (ssRNA)
RNA: GGGAGUUCUACAGUCCGACGAUCGGAGGGCAGAGAGCCGUCGGCCCCGGAGCUCUUGGCCGCCUCGCUCACGCGCUCCAGGAGGGGCAGCACGGCCGGGCGCUUGCCGAUGGCCUCCGGCUCGCAGCCGUCCAGUUCCUCCUCCAACAGAGGAUUGAGCAUCA
B6: chr5:31546141:31546142:+_ENSMUSG00000029148_ENSMUST00000031034|mus_hu|FALSE|FALSE (ssRNA)
RNA: GGGAGUUCUACAGUCCGACGAUCUCUGAGCCACUGCUAAGUACUGUCUGGGACUCCCCCUCCGACAUGCUGGAAGGAACACUCAGGCCUCCCGACUCCGCGCCCCGCAGCCUGCGCUUCAGCUCCAGCUCGGGUUCCGGGGCCCAACAGAGGAUUGAGCAUCA
B7: chr9:106387587:106387588:+_ENSMUSG00000041506_ENSMUST00000047721|mus_hu|FALSE|FALSE (ssRNA)
RNA: GGGAGUUCUACAGUCCGACGAUCGCGGAGUGGGAUGAUGCAGACAGAAUUCCGAGCCUCUUUGAUUCUCCACCAUCGGCCAAGCCUGUGCUCCUGCCCUACCCCAGCCACCAGGAAGUCCCCAGAGCUGGAGAACUUGAGGCUCAACAGAGGAUUGAGCAUCA
B8: chr14:59828787:59828788:+_ENSMUSG00000035469_ENSMUST00000043227|mus_mus|FALSE|FALSE (ssRNA)
RNA: GGGAGUUCUACAGUCCGACGAUCGAGUGAAGAUUGGCCACUUUCCUACAUCCACCAUGACUGUGGCUUUGGACAAUUCCUAUAAAUAAGCUGACAUCUCUGCUGCGUGCUCCGGGUUCCUCCCCCGCAGGGCGGACAGCGCAGCAACAGAGGAUUGAGCAUCA
B9: 128907928_128914798_1089_3pUTR_ENSMUSG00000027394_ENSMUST00000035812|mouse|control|control (ssRNA)
RNA: GGGAGUUCUACAGUCCGACGAUCAGGAGCUGGAAGCUCUGGUAAGGGAGGUGUUUGGUGCUGAUGGCGGGCUCCACACUCAUGAGGCAGCUCCUUAUUAUGUGUUUGAUUUGCAGCAAAAUGCUACUUUCUAAGGUGAUGUUCCAACAGAGGAUUGAGCAUCA
B10: 32628618_32630215_2165_3pUTR_ENSMUSG00000022797_ENSMUST00000023486|mouse|control|control (ssRNA)
RNA: GGGAGUUCUACAGUCCGACGAUCUGGAGAUACAUAGGGCGACAGGAAGUGAUACUCCACUUUCAUAAUACGAUCAUUGAUUUCCCUCAUGACAAAUCUGUUUGUUUUCUCAGCAUUAUGAAAAUCAGUUGUUAGUCUAGAAGUCAACAGAGGAUUGAGCAUCA
B11: 48028008_48028128_2607_CDS_ENSG00000116062_ENST00000540021|human|control|control (ssRNA)
RNA: GGGAGUUCUACAGUCCGACGAUCGCCCUUCUUGGUAGAUUUCAACUCGUAUUCUUCUGGCAAAUUGCGAGUGGUGAAAUUCUCAGGAAUUUCCAGCUGGUAACGGUUCCUACCAAUCCCCCAAUAGACUAUGGUCCUACAGCCCAACAGAGGAUUGAGCAUCA
B12: chr7:99057753:99057754:-_ENSG00000241468_ENST00000394186|hu_hu|FALSE|FALSE (ssRNA)
RNA: GGGAGUUCUACAGUCCGACGAUCCCGGUAGUAACCUCUUUGAAACGCUCCGAAAAUGCCACUAGGACUGAAGUCCCGCAUCAAGAUCCAGCUUGGCAGCUCCCCCAGUUUGACCUCCAGAAGUUUCUUGUCCUUCACUGGUACCAACAGAGGAUUGAGCAUCA
B13: chr1:93811951:93811952:+_ENSG00000117505_ENST00000370267|hu_hu|FALSE|FALSE (ssRNA)
RNA: GGGAGUUCUACAGUCCGACGAUCGAGUUUGGGAAGAAAGUGGGGGCCCGAGGAUUCUAGAGAGAGCACAGCCCAGGCUGAGGAGGGGAAAGCGCGGUGGUCCGGAAAUUUGAGCGGCUGGGGAACCACCUUCGUGUCUCCUCACAACAGAGGAUUGAGCAUCA
B14: 31426652_31426772_2533_CDS_ENSG00000134644_ENST00000257075|human|control|control (ssRNA)
RNA: GGGAGUUCUACAGUCCGACGAUCCAAAAGCCUGCUCCUGCCAGAAGGCAUGACAUCAGACAUUCCAUAUCGCAAACGAGAGGAAGAGAAAAGAGUGCUGCUCGGGCUGAAGAGGCUGGAGGCGCUGCUUGCACUGCGGUACUUCAACAGAGGAUUGAGCAUCA
B15: chr17:87533601:87533602:+_ENSMUSG00000037104_ENSMUST00000041369|mus_mus|FALSE|FALSE (ssRNA)
RNA: GGGAGUUCUACAGUCCGACGAUCUGUUGAGUGUGGGCUCACAGGGGCGGUAUGCUGUUUAAUCAAAUGCCACUUUUGUGCUAAAUCCGAGCCAGCAGGAAAAGGGCAUUUCUCCAGCAUUAAUUCAGAAAGAUGUAUUUUUCUCAACAGAGGAUUGAGCAUCA
B16: chr7:141450121:141450122:+_ENSG00000106028_ENST00000265304|hu_mus|hu_hu_hu_mus_True|1_68 (ssRNA)
RNA: GGGAGUUCUACAGUCCGACGAUCUCAUCCGUUCUAUGCCUUUUCUUUUGUCUGGUCACUCAGAAAUAUAAUAUUAUCAGCUAUGAUUGUUGUUGCUUGCCGCCUCACAUUGUUUUUAUCCAUGUACUCGCCAUAGUCUAUUUUCAACAGAGGAUUGAGCAUCA
B17: chr7:30948173:30948174:-_ENSMUSG00000037029_ENSMUST00000062181|mus_mus|FALSE|FALSE (ssRNA)
RNA: GGGAGUUCUACAGUCCGACGAUCGGAGGACUUCCAACUGUAUAAAGCAGAGGAUGUGUUCCCAUACAACUGUUUAAAUCUAAACUAUGUUUCAAGCUCAAAACUUUAAGCUUUGAACAAUGUUUUGCCUUUUAAAAAUUGAAGCAACAGAGGAUUGAGCAUCA
B18: chr10:94963105:94963106:-_ENSMUSG00000062981_ENSMUST00000075829|mus_hu|FALSE|FALSE (ssRNA)
RNA: GGGAGUUCUACAGUCCGACGAUCUUAUCAAGUGGUAUGAAAAAAGAUGUUCUGAAGAGAAACUGCUUUUAGAAUCUGCUUCUAAGCAUACCAAUUUCUACUCCUGCUUGACGGCUUCUCACCACGAACCCGCCAUCUUGUUUCCAACAGAGGAUUGAGCAUCA
B19: chr14:78183846:78183847:+_ENSG00000119705_ENST00000557342|hu_mus|FALSE|FALSE (ssRNA)
RNA: GGGAGUUCUACAGUCCGACGAUCUCUCAGAAAUCUUUCUUCAUCAGAUGUUUGAGCUCCGUGCAAAGCCUUUGCUCUUUGAGCUUGAACGUGGAUCUAUGGGAGGGAAAGCACUGUCAGAAAAGGUAAUUUUUUUUUUAAAGACAACAGAGGAUUGAGCAUCA
B20: chr6:146598974:146598975:+_ENSMUSG00000030291_ENSMUST00000032429|mus_mus|motif|central (ssRNA)
RNA: GGGAGUUCUACAGUCCGACGAUCCAGUGGCAAUUUCAGAGUUUUUUACUUAUCAAGAGUGAAAACAGAACACAAUGAAAACGGGCGGAAAAAAAAGGCAACACAGUCAUAGCAUAUGAUAUUCUGUAGCUGUUGGUAGGGCUUCAACAGAGGAUUGAGCAUCA
B21: chr1:109605286:109605287:-_ENSG00000197780_ENST00000461096|hu_mus|hu_hu_hu_mus_True|28_98 (ssRNA)
RNA: GGGAGUUCUACAGUCCGACGAUCAAGUUUCAGAGUAUUCAGUGAUCACCUCUUUAAAUGCAAUUAUCCUUAUUAUAAGCUAAGCAGAAUAAUAAUUUAAUACCGUAAGUAAAUACAACACAAAGCCUGAACCGCGAAAAUGGUCAACAGAGGAUUGAGCAUCA
B22: chr9:80412558:80412559:-_ENSG00000156052_ENST00000286548|hu_hu|FALSE|FALSE (ssRNA)
RNA: GGGAGUUCUACAGUCCGACGAUCGGUGGGGACUCGAACUCUAAGCACAUCUUGUUGCGUAGGCAGGUAGGCAGGGUCAGCUACGCGGUCCAAGUCAUUAAGAUAGUAUUUGGUAGAGUCAGAUAAUUGAUAUUCUCGUCGUCUCAACAGAGGAUUGAGCAUCA

target: T1, UNK ZnF1-3; assay: nsRBNS (natural sequence RNA bind-n-seq); RBNS binding buffer (assumed for nsRBNS): 25 mM Tris pH 7.5, 150 mM KCl, 3 mM MgCl2, 0.01% Triton X-100, 500 ug/ml BSA, 20 U/ml SUPERase-In, 4 C; UNK is unkempt and MSI1 is Musashi-1; names of the RNAs are library labels; protein concentration not given here; high values mean tight binding

| Binder | binding signal |
| --- | --- |
| B1 | 2.29 enrichment R |
| B2 | 1.32 enrichment R |
| B3 | 2.41 enrichment R |
| B4 | 0.573 enrichment R |
| B5 | 0.61 enrichment R |
| B6 | 0.783 enrichment R |
| B7 | 1.18 enrichment R |
| B8 | 1.57 enrichment R |
| B9 | 0.854 enrichment R |
| B10 | 0.618 enrichment R |
| B11 | 0.791 enrichment R |
| B12 | 1.21 enrichment R |
| B13 | 1.85 enrichment R |
| B14 | 1.44 enrichment R |
| B15 | 0.691 enrichment R |
| B16 | 0.527 enrichment R |
| B17 | 0.906 enrichment R |
| B18 | 0.555 enrichment R |
| B19 | 1.01 enrichment R |
| B20 | 1.8 enrichment R |
| B21 | 0.996 enrichment R |
| B22 | 1.26 enrichment R |
